Data from the supplement of paper PMC3334620.
Over roughly 33,000 sequences, “E-score (-0.5 to 0.5)” has its median near -0.016; the highest 2% begin near 0.31. The list shows a part of the results.

Each sequence was assayed against Cst6 (UniProt P40535) (assay: PBM E-score (8-mer binding enrichment) (E-score (-0.5 to 0.5)); higher = stronger / more preferred TF binding; most listed sequences are background and not binding sites). Settings: protein concentration: 200 nM; construct: GST-DNA-binding domain.
How it was run: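 PURExpress in vitro transcription/translation supplied GST-tagged yeast transcription factors, either full-length or DNA-binding domain. Applied at about 100-200 nM to universal all-10-mer Agilent arrays double-stranded by primer extension, the bound protein was detected with fluorescent anti-GST. E-scores, modified Wilcoxon-Mann-Whitney statistics, were given by the Universal PBM Analysis Suite to ungapped eight-base words pooled with their reverse complements after masliner normalisation.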

Sequence | PBM E-score
CGCGGGAA | -0.134
GTGAGTTA | 0.0284
AGTGATGA | 0.284
CTCGCAAG | 0.0742
AGTATTAA | 0.229
CAACTGAA | -0.0694
ATGGGGCA | -0.0725
GGAGATCA | -0.0624
ACCCAGGC | -0.183
CCGCCGAA | 0.081
AACAAGTC | 0.0338
CTCGGGGA | -0.162
AAGACATA | 0.0804
CTCCAGAA | -0.175
ACATCTAT | 0.228
GGACATAA | 0.0407
AGCACCCC | -0.271
CGGCGGTC | -0.132
CCTCACTC | 0.0262
AGGCTAAC | -0.114
GTGTTGTA | 0.211
CAACACCC | -0.142
CTCGCCCC | -0.346
TAGTAAGA | 0.137
ATAATAAG | 0.234

Sequence | PBM E-score
GCACGGGC | -0.287
ATCTTTTA | 0.197
AAAGCCGT | 0.223
CTGAATGA | 0.21
CTACAGCC | -0.156
CTAGGAAC | -0.175
AAAACTGC | 0.0422
AACCGTTG | 0.0287
CGTGGACA | -0.00761
ACGGTCGA | -0.115
CGCATGCG | 0.215
ACAGGGCC | -0.102
AGATTTTC | 0.148
CGTCAGAC | 0.287
AACGGCGC | 0.251
GTCTTTTA | -0.0161
CGTCCGAA | 0.087
CACGGCAG | 0.142
AACGTAAA | 0.274
ATGATGTG | 0.333
ATAGGTCC | -0.0652
GCAAGTGC | -0.078
AACCCTAA | -0.154
ATAGAAGG | -0.208
AGCCCCTG | -0.341

Sequence | PBM E-score
AGTGCCCG | -0.107
CTGCGCTC | -0.292
ACGCGTCT | -0.0602
GACGTCAA | 0.479
ATTGATGC | 0.262
GCATAACA | 0.124
CGATCGAG | -0.00323
AGAGGCCG | -0.252
ATATAAAA | 0.291
CCGGCACA | -0.136
ACGGTTTA | -0.0486
ACTTATCT | 0.134
GCTTTTAC | 0.101
GTGAACGA | 0.00799
CACGAGAA | -0.0289
GACCTAGC | -0.116
GCGGTTAA | -0.104
CTCGTGAA | 0.108
CCATCGGA | -0.349
GCGGCCGC | 0.0907
ACGAAGTC | -0.137
ACACTCAT | 0.159
CCCTAATC | -0.188
CATGCCCA | -0.346
ACGAAAGG | 0.0972

Sequence | PBM E-score
ATAAACGA | 0.237
CAACGACG | 0.0108
AGCGTGTG | 0.00485
ACTCTAGA | 0.0646
ATCTTGGA | -0.108
CGAGACAC | -0.253
GTTGTTTA | 0.172
AGGCCAAC | -0.188
CTGAATCA | 0.055
GCATGGAC | -0.0258
CAGACCGG | -0.114
ACGTGAGG | -0.0089
ATTAATGA | 0.243
ATCAGAGG | 0.144
AAACAATC | 0.177
CAATCCCA | -0.322
ATACATGG | -0.121
CGCTTGAA | 0.167
GGTACGAA | 0.0828
AGGCGAAT | 0.0491
GCTCACAC | -0.0478
GAGATGCA | -0.071
ATGCTGGG | -0.131
AATTTACG | 0.296
ACCAGTCG | -0.0984

Sequence | PBM E-score
AAGTCGGC | -0.239
CAGAGAAA | 0.252
ATCGTGTC | 0.0646
CCATGCTC | -0.244
CTCTGTGC | -0.134
CAAAAGAA | 0.239
CAAGATTA | 0.143
CTTGTCTC | -0.0854
AAAGCCCC | -0.286
CAAAGCAG | -0.00273
AGGAGGAG | -0.204
CTTTGATA | 0.126
CGGTGTTC | -0.0808
ACAGGCGT | -0.233
ATCTTTAA | 0.223
ACTTATAT | 0.257
AGGGGCGC | -0.00801
AAGGAGCC | -0.121
AAACTTTC | 0.00588
CAGCTACC | -0.211
ATTGCTCA | 0.192
CAATCCGG | -0.155
ATTTGCTC | -0.00905
AGATTGTG | 0.063
CGACGCAG | -0.242

Sequence | PBM E-score
TCCCGTAA | -0.0225
AGAGAAAG | -0.0221
AACAGCTG | 0.144
AACTGCAC | 0.0183
GCTGAAGA | -0.228
CAACTGTA | -0.00136
CCACTTCG | 0.0107
ATTGTTTC | 0.24
ATGTCAGG | 0.176
CCCGAGGA | -0.168
CACCTAAC | -0.0134
CTGGTTTA | -0.0136
TCTCGACA | 0.135
AGTACACA | 0.0774
GCTTTCGA | -0.155
CGCAACAG | 0.174
CCCACTTA | 0.0624
CCAGATCG | -0.0783
ATTTTCAA | 0.206
ACATAGAA | 0.126
AGCTGCCA | -0.0672
CAAACTAC | -0.015
GCTCCCAC | -0.251
CGTTCCGC | 0.0692
CTGGATTC | -0.217

Sequence | PBM E-score
ACTTCCTC | -0.198
CAGCCCTG | -0.285
AAGACAAA | 0.175
CAGCGGAC | -0.196
TAAAGGTA | -0.0195
CTTTGATC | -0.0386
CACTAAAG | -0.0911
ATACCTCA | 0.0795
ATTACAAC | 0.226
CACACCAA | 0.186
GCCACCAA | -0.0617
ATGTCATA | 0.442
GTTCTAGA | -0.0522
CTGCTCCA | -0.111
AGCTTTTG | 0.0485
TCGTCGAA | 0.116
ACTCGTCG | -0.0287
TATTTTCA | 0.227
AGCTACCT | -0.0864
TCTGGGAA | 0.00723
ATTGCGAG | 0.0899
AATCGACA | 0.148
CCTAGTTC | -0.0909
CAATGCGG | 0.0695
AAGTATAG | -0.22

Sequence | PBM E-score
CACTAGGG | -0.241
GGACACAC | -0.164
AGTACAAC | -0.143
ACTCAGGG | -0.233
CGAGCGCG | -0.0601
CACAAGGG | -0.232
AGGTGGCC | -0.137
ATAAGTAG | -0.0244
AGTGGGAC | -0.201
ACACAGGT | -0.226
CTTATCTA | 0.274
ATGCGAAA | 0.114
CCTTCCAG | -0.101
GGCCCGCA | -0.213
AGATGCCA | -0.0689
AATGAAGA | 0.216
AGAGCGTG | -0.211
CCATGACC | 0.0749
AGCCGCGC | 0.18
GAGTCTTA | -0.241
GGTCTCCA | -0.104
AATTACGA | 0.286
CCTTGACG | 0.094
CGGCTGCC | 0.00372
AGGATGTG | -0.232

Sequence | PBM E-score
ACGGGCCG | -0.0938
TCCAGTCA | -0.0187
GATTTAGC | -0.025
TAAACCAA | 0.134
ATTTACTC | 0.153
AGCGTAAT | 0.257
AGGTCGGA | -0.136
TGCTTAAA | 0.118
GCCCTTCA | -0.123
CATGTATC | 0.141
CGGTATCA | 0.0799
CCAACGGG | -0.134
GACGTCCC | 0.016
AGAACATG | 0.116
GGCTGTGA | 0.043
GAGCAACC | -0.0196
ATTAGACG | 0.0574
ATTGAATA | 0.305
CGAACGGC | 0.258
